This is one part of the list. Values were computed here from the reads of four pooled replicates and scatter widely.
The sequences below were run against T1, Pho4 (S. cerevisiae) (UniProt P07270) (assay: relative binding free energy (BET-seq); higher = weaker binding). Settings: reference: library average.
T1 sequence: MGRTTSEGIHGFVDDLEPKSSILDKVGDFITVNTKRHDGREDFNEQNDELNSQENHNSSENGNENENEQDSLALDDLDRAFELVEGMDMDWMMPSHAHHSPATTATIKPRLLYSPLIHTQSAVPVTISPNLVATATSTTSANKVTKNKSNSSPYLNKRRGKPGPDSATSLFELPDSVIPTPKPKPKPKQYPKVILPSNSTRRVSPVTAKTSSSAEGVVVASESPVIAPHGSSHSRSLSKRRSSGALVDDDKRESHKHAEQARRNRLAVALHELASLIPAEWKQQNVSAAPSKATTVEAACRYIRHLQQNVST

Row | Sequence | relative binding free energy [kcal/mol]
1 | GGGGTCACGTGTTAGC | 0.31
2 | TGAATCACGTGGCTTG | 0.23
3 | CTTGCCACGTGTCGGG | 0.04
4 | TGGTGCACGTGGACAG | -0.02
5 | AGACTCACGTGGGAGG | 0.1
6 | GTGATCACGTGTAAGG | 0.25
7 | AGGTCCACGTGGTGTG | -0.09
8 | ATATACACGTGTTGAG | -0.06
9 | GGGGGCACGTGCGGAC | -0.02
10 | GCCGGCACGTGGGGGG | -0.19
11 | ATGATCACGTGGATAG | 0.07
12 | TTTTGCACGTGACGGA | 0.19
13 | CGGTACACGTGGGGTA | -0.12
14 | TCGGTCACGTGGTAAA | 0.21
15 | TGTGGCACGTGTGCAA | -0.11
16 | TGGATCACGTGTAGTA | 0.21
17 | GTCCACACGTGGGGGT | -0.03
18 | AATTGCACGTGAATTA | 0.16
19 | ACGTTCACGTGGTTAG | 0.08
20 | TGGTGCACGTGTGCGC | -0.09
21 | ACTTGCACGTGGTGGG | -0.17
22 | TAGTTCACGTGCAGGG | 0.35
23 | TGTTGCACGTGTGCAA | -0.04

Row | Sequence | relative binding free energy [kcal/mol]
24 | TGTGTCACGTGTGGTC | 0.14
25 | TTGGCCACGTGTGTAA | -0.07
26 | GTAGTCACGTGGTAGT | 0.16
27 | AGGCTCACGTGAGGCG | 0.2
28 | TACAGCACGTGGGGAG | -0.25
29 | TAGAACACGTGTTTGG | -0.07
30 | GCGTTCACGTGGGCAG | 0.28
31 | TGTGGCACGTGAGGGC | 0.24
32 | GGTGGCACGTGCGGAA | -0.21
33 | ATCGGCACGTGTTTGA | 0
34 | GCGTTCACGTGGGGCG | 0.07
35 | TAGATCACGTGTTTAG | 0.05
36 | CGTGGCACGTGGCGTT | -0.13
37 | TTGAGCACGTGACGTG | 0.06
38 | TTTTTCACGTGATCTG | 0.27
39 | ATGGCCACGTGATTGT | -0.01
40 | TTCGTCACGTGGGAGC | -0.03
41 | TAAGTCACGTGTTACG | 0.01
42 | TAAATCACGTGGGGGT | 0.03
43 | GATGGCACGTGGCGTA | -0.14
44 | AGGAACACGTGAAAGT | 0.39
45 | AGTGACACGTGCAAGT | -0.02
46 | ATAAGCACGTGATGGG | -0.01

Row | Sequence | relative binding free energy [kcal/mol]
47 | GAAGTCACGTGTTTGA | 0.23
48 | TTCTACACGTGTATTG | 0.01
49 | CGTTGCACGTGGGATT | -0.03
50 | TTAATCACGTGAAGTA | 0.33
51 | AACGTCACGTGTTGAG | 0.2
52 | GGTATCACGTGTATAA | 0.2
53 | AGGTGCACGTGGTATT | -0.11
54 | TGATGCACGTGTGAGG | 0.02
55 | ATTGACACGTGTAAGT | 0.12
56 | TTATGCACGTGGTGGT | -0.09
57 | CGGTACACGTGGTACG | 0
58 | CGTATCACGTGTATTA | 0.07
59 | ATGGTCACGTGCTTTG | 0.01
60 | ATGTTCACGTGTGTTT | 0.27
61 | TAGTCCACGTGGTTGT | 0.03
62 | GGTTGCACGTGGGTCT | -0.22
63 | CAGAGCACGTGGGGGG | -0.33
64 | TTGGTCACGTGGAGAC | 0.11
65 | CGTGGCACGTGGTAAT | -0.17
66 | AGGCGCACGTGGGATG | -0.35
67 | ATATTCACGTGAAAGT | 0.37
68 | AGTGGCACGTGGCAGT | -0.21
69 | AGTTTCACGTGTGACA | 0.37

Row | Sequence | relative binding free energy [kcal/mol]
70 | GTATCCACGTGTTTTA | 0.08
71 | AGTAGCACGTGAAGCG | 0.36
72 | ATGGGCACGTGGACGT | -0.13
73 | TGGATCACGTGAGAAG | 0.39
74 | TTTGTCACGTGGTTAA | 0.02
75 | TGAATCACGTGGAATG | 0.23
76 | TGTTACACGTGGATAG | 0.04
77 | TTCTACACGTGATGGT | 0.21
78 | TGTAACACGTGGAGGT | 0.03
79 | GAGGGCACGTGTTGGT | 0.02
80 | ATGTTCACGTGGTTAT | 0.29
81 | TTTGCCACGTGATGGT | 0.09
82 | ATGCGCACGTGTATTT | -0.13
83 | CGGGGCACGTGTGCGA | -0.22
84 | AGCCGCACGTGGTAGG | -0.15
85 | TTTATCACGTGGGGCA | 0.06
86 | GGTTTCACGTGGTTTA | 0.3
87 | GGCTTCACGTGTTAGT | 0.27
88 | ACGGGCACGTGTATGG | -0.12
89 | ATGTACACGTGTGGAT | 0.12
90 | GGTGGCACGTGTTAGC | -0.02
91 | TGGTGCACGTGTCTTG | -0.04
92 | TTCGTCACGTGCTTTT | 0.01

Row | Sequence | relative binding free energy [kcal/mol]
93 | TAAGGCACGTGTAGCG | -0.06
94 | CGTTTCACGTGTGGTG | 0.08
95 | TATTTCACGTGCGTGA | -0.02
96 | GTGGTCACGTGATAGC | 0.16
97 | GTTTACACGTGGCTTT | 0.19
98 | GTGGACACGTGTATTG | 0.13
99 | GGAAACACGTGGTGAG | 0.05
100 | AGGATCACGTGATGAT | 0.3
101 | CAACGCACGTGGTGGG | -0.14
102 | CTATGCACGTGTCTGT | 0.04
103 | GTCGGCACGTGTCTTG | 0.09
104 | GCGTGCACGTGCGTGT | -0.25
105 | GATTACACGTGGGACT | 0.18
106 | TAGTGCACGTGGGCGA | -0.15
107 | GGGGTCACGTGAGTCA | 0.17
108 | GGCTTCACGTGTCGTT | 0.29
109 | AAGGGCACGTGGCTGT | -0.24
110 | GTGTACACGTGTAAAT | 0.21
111 | GTAAGCACGTGATGGC | 0.22
112 | GGGTGCACGTGAACAG | 0.27
113 | GATTTCACGTGTGGTG | 0.24
114 | CGGTGCACGTGAGCAT | 0.26
115 | CTTTGCACGTGCGAGG | 0
